# Measured values published in ChEMBL document CHEMBL4888484, “Replenishing the malaria drug discovery pipeline: Screening and hit evaluation of the MMV Hit Generation Library 1 (HGL1) against asexual blood stage Plasmodium falciparum ,using a nano luciferase reporter read-out” (2022).
# Several values for one entry are separate records, joined by “and”; a condition that tells them apart may be missing. Equal values may be shown once. Hit rate of the full screen: of about 150,000 compounds, about 540 (0.36%) showed an effect of 50% or more. Some of the results follow.
# Tested on: Plasmodium falciparum
# Assay: Primary screen in NF54 nanoGlo assay, in single point, at 2uM, 72h; a lower Z score goes with more inhibition
# Type: functional, Erythrocyte
# Conditions: timepoint 72 hour
SMILES,% Inhibition,Z score,% Inhibition (2 µM)
Cn1ncnc1C1(O)CCN(c2ncccc2Br)CC1,-2%,0.33,
Cc1csc(NC(=O)Cc2c[nH]c3ccccc23)n1,-3%,0.26,
CCc1nc(C)c(C(=O)N2CCC[C@H](c3nc4ccccc4s3)C2)o1,-4%,0.39,
CCCc1c(C(=O)N[C@@H](C)CCN(C)C)[nH]c(C)c1C(=O)OC,-2%,0.28,
O=C1CC[C@@]2(CCCN(C(=O)c3cccc(O)c3)C2)CN1CCc1ccccn1,-1%,0.17,
CO[C@H]1[C@@H]2CC[C@H]1CN(c1nc(N)nc(C)c1CCC(=O)O)C2,-11%,1.37,
Cc1c(CN[C@H]2CC3(CCOCC3)Oc3ccccc32)cnn1C,5%,-0.94,
O=C1CCc2cc(NC(=O)c3ccoc3)ccc2N1,-22%,1.95,
Cc1cc(NC(=O)c2ccc(-n3cncn3)nn2)no1,-11%,1.4,
O=C(Nc1nc(-c2ccsc2)ns1)N1CCCC(F)(F)CC1,-7%,0.89,
Cc1cc(C)c(-c2nc(-c3c(C)ncc4c3CCNC4)no2)c(=O)[nH]1,-11%,2.08,
Cc1cccc(-n2nc(C3CC3)nc2Cn2ccnn2)c1C,-5%,1.07,
CN(Cc1cccc2[nH]ccc12)Cc1nccn1C,0%,0.01,
O=C(Cc1cc(-c2ccccc2)on1)Nc1ccccc1-c1ccccc1,3%,-0.69,
CCOC(=O)N1CCN(/C(=N\c2cccc(C(=O)O)c2)NC[C@H]2CCCO2)CC1,6%,-0.57,
O=S(=O)(CCn1ccnc1-c1ccncc1)c1ccccc1,-12%,2.34,
CCn1cnc(C(=O)NCc2ccc(F)cc2)c1,-9%,1.12,
CCN(C)C(=O)c1ncccc1NCC1CCC1,-9%,1.17,
Cc1ccc(N2CCN(Cc3nc(-c4ccccn4)no3)[C@@H](C)C2)cc1,-9%,1.41,
CCC[C@]1(CO)CCCN(c2cc(C(=O)N3CCCCC3)ccn2)C1,-14%,1.92,
CCOc1ccc(-n2c(-c3ccccc3)cc(C(=O)NCc3cccnc3)c2C)cc1,6%,-0.89,
CCOC(=O)N1CCN(C(=O)c2ccc(N(CC)S(C)(=O)=O)cc2)CC1,-2%,0.32,

SMILES,% Inhibition,Z score,% Inhibition (2 µM)
CCN1CCN(C(=O)C2=CC(c3cccs3)=NS(=O)(=O)N2C)CC1,-1%,0.22,
O=C(Nc1[nH]nnc1C(=O)N1CCCC1)N[C@H]1CC12CCCCC2,1%,-0.11,
Cc1ccccc1OC[C@H](O)c1ncnn1CC(F)(F)F,-6%,0.76,
c1ccc(-c2cn3nc(NCc4ccc(Cn5ccnc5)cc4)sc3n2)cc1,3%,-0.54,
CC(O)CCCNC1C2CCC1Cc1ccccc1C2 (stereo unspecified),29%,-3.24,
O=C1OC[C@@H]2CCN(Cc3cccnc3)Cc3ccc(F)cc3N12,-14%,2.18,
CCOCCC(=O)Nc1nccc(C)n1,9%,-1.32,
COc1ccc(N2CCN(C(=O)c3ccc(F)cc3)[C@@H](C)C2=O)cc1,36%,-1,
Cc1ccc(O[C@H]2COCC[C@H]2Nc2nc(N(C)C)ns2)cn1,-1%,0.16,
CC(C)N(CCO)C(=O)C[C@]1(c2ccccc2)CC(=O)N(CCCOc2cccnc2)C1=O,8%,-0.97,
CC(C)(C(=O)COc1ncncc1-c1ccccc1)c1ccccc1,4%,-0.75,
CNC(=O)C1CCCCN1CCOCC1CCCO1 (stereo unspecified),-3%,0.36,
CC1(C)[C@@H](NS(=O)(=O)CC2CCCCO2)[C@@H]1c1ccccc1 (stereo partly specified),-9%,1.32,
CC1OCCC1S(=O)(=O)N(C)Cc1nncn1C(C)C (stereo unspecified),-8%,1.5,
O=c1[nH]cnc2[nH]c3cc(F)ccc3c12,-6%,1.1,
CN(c1ccnc(C(=O)NCCN2CCOCC2)c1)S(=O)(=O)c1ccccc1,-6%,0.91,
Cn1cc(S(=O)(=O)N2CCN(c3ccccn3)C(=O)C2)cn1,16%,-2.04,
O=C(c1ccc(NCc2cccnc2C(F)(F)F)cc1)C1CCC1,-18%,2.75,
O=C(Nc1cccc(Cl)c1)OCC(F)(F)F,5%,-0.73,
Cc1ccccc1[C@H]1CC(=O)Nc2c1cnn2-c1nc2ccccc2s1,0%,0.03,
CCCn1ncc(C(=O)N2C[C@H](NC(C)=O)[C@@H](c3ccc(C)cc3)C2)c1C,-8%,1.11,
CN1CCN(c2cc(N(C)Cc3ncc[nH]3)ncn2)CC1=O,5%,-0.84,

SMILES,% Inhibition,Z score,% Inhibition (2 µM)
CC(C)C(=O)N(Cc1ccccc1OS(=O)(=O)c1cccc(C(F)(F)F)c1)C[C@H]1CCCO1,-9%,1.64,
C[C@@H](c1cccc(Cl)c1)S(N)(=O)=O,-11%,1.01,
Cc1cc(CN(C)C(=O)c2ccc(C(C)C)cn2)no1,-3%,0.46,
COc1ccc(N(CC#N)Cc2cccs2)cc1,-1%,0.07,
C[C@@H](Cc1csc2ccccc12)NC(=O)c1ccno1,2%,-0.19,
COc1ccc(NC(=O)c2cnc(N(Cc3ccccc3)C(C)C)nc2N)cc1,15%,-2.3,
O=C(Nc1cnc(N2CCCCCC2)nc1)c1cnccn1,-38%,3.38,
CS(=O)(=O)N1CC[C@H](CNC(=O)N(CC2CC2)CC2CC2)C1,7%,-0.77,
COc1ccc(Br)cc1NC(=O)N(C)CCCn1ccnc1,8%,-0.86,
CC(C)N1CC[C@H](N(C)C(=O)c2ccc(C(=O)O)cc2F)C1,6%,-0.96,
CC(C)CCC(CC(=O)NCCN(C)C)C1CCOC(C)(C)C1 (stereo unspecified),-11%,1.47,
COc1ccccc1/C=C/CN1CCN(C)[C@]2(CCC(=O)N(C)CC2)C1,5%,-0.94,
Cc1cccc(CN2CCN(C(=O)c3ccccn3)[C@H]3CS(=O)(=O)C[C@H]32)c1,11%,-1.45,
CC(C)N(Cc1c(-c2ccccc2)nn(C)c1Oc1ccc(F)cc1)C[C@H](O)CN1CCOCC1,-13%,1.47,
COC[C@H]1[C@H](NS(=O)(=O)Cc2cc(Cl)cc(Cl)c2)[C@H]2CCO[C@H]21,-11%,2.06,
Cc1cccc(NC(=O)CN2CCN(Cc3nc(-c4ccccc4)no3)CC2)c1C,-2%,0.43,
CN1CCN(C(=O)c2nn(C)c(=O)c3ccccc23)CC1=O,-3%,0.51,
Cn1c(=O)c2c(ncn2CC(=O)N(Cc2ccccc2)C2CC2)n(C)c1=O,36%,-4.58,
CC(C)[C@@H](c1nc(C2CC2)no1)N1CCCS1(=O)=O,-3%,0.4,
Cc1noc(C)c1CC(=O)Nc1n[nH]c(CCC2CCCC2)n1,,,-1% and -8%
Cc1c(NC(=O)[C@H]2CCCN(CC(F)(F)F)C2)nnn1Cc1cccc(F)c1,-4%,0.84,
COc1ccc(CC(=O)NCc2ccc(OCc3cccnc3)cc2)cc1,26%,-3.35,

SMILES,% Inhibition,Z score,% Inhibition (2 µM)
O=C(Nc1ccc(Cl)cc1C(F)(F)F)N1CC[C@H](n2cnnc2C2CC2)C1,-3%,0.5,
Cn1ccnc1CN(CCO)C(=O)c1cc2cccc(Cl)c2n1C,-1%,0.13,
CN1C(=O)c2ccccc2O[C@H]2CN(Cc3cc(-c4ccccc4)no3)C[C@H]21,4%,-0.65,
COCCNC(=O)c1ccc(OC)cc1OC1CCN(Cc2cccc3cccnc23)CC1,-9%,0.85,
COc1cccc(-n2c(=O)n(C3CCCC3)c(=O)c3c2ncn3Cc2cccc(C#N)c2)c1,-11%,0.98,
Cn1c(-c2nccn2[C@@H](Cc2ccccc2)C(=O)O)nc2ccccc21,-6%,0.87,
Cc1cccc(-c2noc(-c3sccc3NC(=O)c3n[nH]c4ccccc34)n2)c1,-4%,0.42,
CCn1cc(-c2cn(CCOc3ccccc3)nn2)cn1,-8%,0.96,
Cc1noc(COc2ccc(NC(=O)C3CCC3)cc2)n1,-4%,0.59,
CC(C)c1cnc(NS(C)(=O)=O)s1,-10%,1.49,
CCN(CC)C(=O)c1c(COc2ccc(C)cc2)n(Cc2ccccn2)c(C)cc1=O,4%,-0.79,
Cc1noc(NC(=O)[C@H](C)Oc2ccccc2Br)n1,5%,-0.57,
CCCN(CC1CC1)C(=O)Nc1cccc(-c2nnc(C)s2)c1,-6%,1.02,
COCc1cccc(CC(=O)N2CC3(CCC3)[C@@H]2C2CC2)c1,-4%,0.46,
CCCc1nc(CS(=O)(=O)[C@@H](C)C(N)=O)cs1,-4%,0.41,
CC1CC2CCCCC2N1C(=O)Nc1ccc(Cl)cc1 (stereo unspecified),-1%,0.13,
CCOC(=O)c1cc(C2CC2)nc2c1c(=O)n(CC(=O)Nc1ccc(Cl)cc1)c(=O)n2C,12%,-1.64,
Cc1nnc(-c2ccc3ccn(CC(=O)N4CCCCC4)c3c2)o1,5%,-0.54,
CCNC(=NCCc1csc(N2CCCC2)n1)NCC,-3%,0.58,
O=C(C1CC1)[C@@H]1CN(CC(=O)N2CCOCC2)CCO1,-7%,0.95,
